From the supplement of paper PMC12632987
In all, about 2,300 sequences were measured (“median log2 fold change of GCK-ALFA target abundance (FLAG IP / Myc IP barcode read proportion)”: median about 0.095, lowest 2% from about -0.47 on). Some of the results follow.

B1: LC3A_3_1869 (protein)
chain: MEEIKEEILKLLKERGRSEETIEAAKELLEALEERGYEEAAKTLLEELKELKDLPDELLLDMFLDLLRAVTEEKLNEEETIKKIKEEASIAKNEKEIIEL
B2: LC3A_17_558 (protein)
chain: MEELKKEIEELLKEAEELIKELEKYDKEAAEKLKKILEKAKKYLKEGKLEEALEELEKLADEAADIFDSLEHIDPQLMSILSMEAEGLRIEAELLRDKLE
B3: LC3A_102_148 (protein)
chain: SAEEKVEKLKKEAEKEGEKIAEKYKKKDPEKAKKIKELLLKGIEALAESALDEIRHGFVDLYAEDLAEEKLEELKKLGEEEGVKLLEKYREELKKIVKEA
B4: LC3A_3_1732 (protein)
chain: MEEVLEEARKRLEALGFSPELIEAALATIEALLEKGLEEQVELLLEALERIRDADEEDLLAYLEEIRELVETDKGSREELAEKVREEIRVMENDSEIEEL
B5: LC3A_23_616 (protein)
chain: MYKVEIIVDIIVPKEEAEKVEKDLLETINKVLEKNKSKIKEYKIEVEKEELEDGTVLLTIKVTIIYDGNKEEAEELANELVSAIDKTAPDAVISAEVSKI
B6: LC3A_28_1261 (protein)
chain: NKLEENLKKALEEAKKAVERGEEALIEIEIPAGITEEEVEKVIKTLEEIAELTASLKSVTVILDVEKGVSQEHIDKLADAAEELEKKYPNLTVIIALEEE
B7: LC3A_6_2065 (protein)
chain: KKAEFVLDILFPEERKEEGKEKAEKVFKEAKEELEKFMKSLGKKVIEAKLEYSEDGLLITITIVVEATPESIKKASEIIDKIEEELKPLASASLISEEIL
B8: LC3A_127_199 (protein)
chain: EKKKILEEAEKLAEEAIKEVDKIEEKGEEAREKAIKLLEELKKLLKKIPSLKEAEEDAEEAIKLLKELENLSEAEKEEAIEHIEMLLDGILIEIESELLK
B9: LC3A_28_680 (protein)
chain: SELEKEIEKALEEAKKAAEKGEPAVITINVPGDATEEEIEKFIKALKEIAEILKDVKGAAIIVNLSSKLSEEKKNKIIDAAEEINEKYPNVTVIIALEEK
B10: LC3A_3_1814 (protein)
chain: LDERVEETLELLREAGASEETLEAFRAAAEKLKEKGYYKALETFIELMRKNKDLPSELLLAAAKDVLELIETSDLNEEEMTKKIEEIFSTYEHEAEIEEL
B11: LC3A_free_46_2431 (protein)
chain: YIVEIDIDLLHKDKEVLEKAVEEIVEKIKEIAEKYNAEIEIEVEISKDEDGSYFARIKATIKVETEETAKKIADEIIDAVDEIAEKYDVSYIISVDISKE
B12: LC3A_3_1883 (protein)
chain: MEEEIEEALERLREAGASEEALEAFREAAELLRERGYEEALRTLIEEVEKLLDLSDELVLEFLEEVLRVVREEDLNEEELIERIREIARLTRNEGEIIEL
B13: LC3A_free_39_2188 (protein)
chain: SEEEAKKYKEELLKLAEEEGEETKKLAEEIIKIIGEDLKYLKELLELVKELKKEGVDLKKALEEALKLAKELKKKGKSKEEIAKEVLELLRDEINLIPID
B14: LC3A_147_427 (protein)
chain: MVVEVDIIVRGEEAVEEVKRFFQEIAEELRAQGYKVTLEIEVEKLDENTWYIRVTLTVEAETREEAEEAKQYVLDRIDELEERLKDRILGSLISVSYEEK
B15: LC3A_28_772 (protein)
chain: MDIKENAAKAIAEAKAAAAAGEEAVIEIKVPDGATEEDIEIVIKALEEIAEITKDMKSISVVIDVDGGVKQEHLDKLAKAAEEIEEKYPNVTVIIALDEN
B16: LC3A_3_1397 (protein)
chain: MEEIRKEILKELKEMGASEEVLKAAEEVLDALAARGYEKAMETLLEEVKKLKNASDEILLAFFEDVLAFVKTNDASEEEAVEFIKEEARIALNEEEIEEL
B17: LC3A_free_39_2261 (protein)
chain: MEKEREEAIKEAKELAEKTSPEVKKAVTELVELLKDNVELLKKLTELLKKAIEKGPEVVAVFGEFAKEAVERIKAGEPKEKAVKELLKLAENAIEIEEID
B18: LC3A_28_813 (protein)
chain: SEKEKTIEEIKKQAEEAKESKDMKLINVKISSTFTVEEAEEIMEVVEEEVKELSKLGKVAVVVDADEPISQEVLDVIAERGEEIEEKYPNVSVIIALPEE
B19: LC3A_74_2073 (protein)
chain: KLSPEEVEEIVDTIGTLKGALELLKEKGLVTEEEVKKYEEVIEKAKELLKKNGALTEAVEGGIDLEAELVKLKLENKPEEAKKLAEESYKKLEELLKKWE
B20: LC3A_28_732 (protein)
chain: SELDESIEKALAEAKEAAKKGEETVITIKVPGTATEEDIEKVIKAMEEIAEITKDLKSTAIIIDLDGKVPQEYIDKLADKADEIEKKYPNVTVIIALDEE
B21: LC3A_3_1726 (protein)
chain: MEERLAAARERLEALGYSPEVLAAALATVEALLERGLEEQVEKLLAALEKIKDADQEVILAGLQDILALVETSTLSKEELAKEVEEEINTLLHDGEIEEL
B22: LC3A_13_345 (protein)
chain: TVTIEAETAEELLKKGTAALEAHPGEKIKITVTIRDEEEAEAVAKALKELIDLAIEKGNTLDITLKGKRDLVLFAELELGAYIAEVLGKADVTVTGVETP
B23: LC3A_3_1561 (protein)
chain: AEELLKETLEELRKAGASEEVLEAVRKAAEALIEKGYEEALKTFAEELRKLLHLPDEYLLEFAEEVLEMVETEDLNEEEVIEEIKRIARTVRNDAEIIEL
B24: LC3A_102_163 (protein)
chain: ELEKLKEELLKKALERLEKLLAKDKSVSEEEKKEILETAREALLAAFENTVTEEQHGYTDIVAEDKLLDNLEYLKEKSEEYAKLVEESIEELRKAVKEKL
B25: LC3A_128_223 (protein)
chain: NELVKEALEELERALEDLKKIATTPELKKLVKEAEKKLKEAKKLVKEGAPLEEIKKALEEALKIAKEAIKLAEEKGVPNTVALNAAEIDLAEAEELLQKI
B26: LC3A_13_335 (protein)
chain: TIKIEVETPEELREKVLKAIEENPGETIEITVTVKTEEEVDKFAEALEEIIDKAIEKGNSLKITIKGKRDNVLELSLLVGSYIAEHIDEADVTLEEEILP
B27: LC3A_3_1626 (protein)
chain: GEERLEETLAELRAAGHSEETLEAFRRAGEALAERGYEEALETLIEEVRELLDLPDDILLWFLEEVLRAVEEEDLDEEEVIERIREEARIARNEAEIIEL
B28: LC3A_28_1314 (protein)
chain: MSIKEQFEKAIKEVKEAAEKGEPVVVTIDISAEDAEKHLEEILKLLEELAEEASKAPGATIIIDLDEKVDPENQQKIIDKGEELEKKYPNVTIIFAIEDN
B29: LC3A_102_146 (protein)
chain: SQLEELEKLREEALARADEIAAAVAAEDPARAAELRALLHEGIDALFENARTQIEHGYTDIVAEDRFLEALDRLRALGDEAGVALLEETEKRAKELVEKA

Target: MAP1LC3A, Q9H492
Test: median log2 fold change of GCK-ALFA target abundance (FLAG IP / Myc IP barcode read proportion) (log2 ratio); each designed protein is fused to an ALFA-tag nanobody in HEK293 cells to bring the named protein to FLAG-tagged glucokinase (GCK); Myc marks an untargeted standard; higher = target protein stabilised (more abundant)
Details: target protein: 3xFLAG-MCP-GCK-ALFA reporter; HEK293 landing pad (RPLP)
Procedure, shortened: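 The readout is target abundance, the per-binder median log2 ratio of FLAG to Myc barcode read proportions. It came from HEK293 landing-pad cells carrying a recombined ALFA-nanobody-fused binder library, induced with 2 μg mL^−1 doxycycline and transfected with a plasmid for a FLAG-tagged target and a Myc-tagged standard. After 48 h, lysates were immunoprecipitated with anti-FLAG and anti-Myc, and circular RNA barcodes were reverse transcribed, amplified and sequenced. Each barcode needed a proportion of at least 10^−7 in both replicates and each binder at least 3 barcodes per replicate, a pseudocount of 10^−6 was added, and the replicates were pooled.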

Binder | median log2 fold change
B1 | -0.0496
B2 | -0.179
B3 | 0.25
B4 | 0.215
B5 | -0.672
B6 | 0.27
B7 | 0.268
B8 | -0.0513
B9 | 0.0856
B10 | 0.215
B11 | 0.0337
B12 | 0.278
B13 | 0.231
B14 | -0.106
B15 | 0.202
B16 | 0.243
B17 | 0.408
B18 | -0.181
B19 | 0.328
B20 | -0.0226
B21 | 0.271
B22 | 0.185
B23 | 0.04
B24 | 0.0145
B25 | 0.17
B26 | -0.0985
B27 | 0.145
B28 | 0.00609
B29 | 0.412
